Test results: the supplement of paper PMC4996465
Viability of KB3-1 and Nalm-6 cells after 48 h of drug alone (CellTiter-Glo), 11 doses over about 4.5 log units. % of DMSO wells, lower = more cell loss; AC50 from the fitted curve, lower = more potent. No active / inactive call. Nalm-6 was screened in two runs. AC50 is listed only for well-fitted inhibitory curves. KB3-1 is a HeLa-derived carcinoma line, Nalm-6 a B-cell precursor leukaemia line.

How the values were obtained:
Nalm-6 [1] = assay: viability (% of DMSO control); higher = more viable cells
Protocol: (§1)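 Eleven-dose screen of the NCATS MIPE 3 library on cells without co-treatment; CellTiter-Glo after 48 h, as % of DMSO wells.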

KB3-1 [2] = assay: as above
Protocol: as §1

Nalm-6 [3] = assay: log AC50 of viability decrease (48 h) (log10 M); higher = less potent
Protocol: (§2)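 Eleven-dose screen of the NCATS MIPE 3 library on cells without co-treatment; CellTiter-Glo after 48 h. AC50 from the curve fit; only inhibitory curves of the better fit classes are listed.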

KB3-1 [4] = assay: as above
Protocol: as §2

Compound	viability (Nalm-6 [1]; run: 1, 0.00078 µM) [%]	viability (Nalm-6 [1]; run: 1, 0.00234 µM) [%]	viability (Nalm-6 [1]; run: 1, 0.00702 µM) [%]	viability (Nalm-6 [1]; run: 1, 0.0211 µM) [%]	viability (Nalm-6 [1]; run: 1, 0.0632 µM) [%]	viability (Nalm-6 [1]; run: 1, 0.19 µM) [%]	viability (Nalm-6 [1]; run: 1, 0.569 µM) [%]	viability (Nalm-6 [1]; run: 1, 1.71 µM) [%]	viability (Nalm-6 [1]; run: 1, 5.12 µM) [%]	viability (Nalm-6 [1]; run: 1, 15.4 µM) [%]	viability (Nalm-6 [1]; run: 1, 46.1 µM) [%]	viability (Nalm-6 [1]; run: 2, 0.00078 µM) [%]	viability (Nalm-6 [1]; run: 2, 0.00234 µM) [%]	viability (Nalm-6 [1]; run: 2, 0.00702 µM) [%]	viability (Nalm-6 [1]; run: 2, 0.0211 µM) [%]	viability (Nalm-6 [1]; run: 2, 0.0632 µM) [%]	viability (Nalm-6 [1]; run: 2, 0.19 µM) [%]	viability (Nalm-6 [1]; run: 2, 0.569 µM) [%]	viability (Nalm-6 [1]; run: 2, 1.71 µM) [%]	viability (Nalm-6 [1]; run: 2, 5.12 µM) [%]	viability (Nalm-6 [1]; run: 2, 15.4 µM) [%]	viability (Nalm-6 [1]; run: 2, 46.1 µM) [%]	viability (KB3-1 [2]; 0.00078 µM) [%]	viability (KB3-1 [2]; 0.00234 µM) [%]	viability (KB3-1 [2]; 0.00702 µM) [%]	viability (KB3-1 [2]; 0.0211 µM) [%]	viability (KB3-1 [2]; 0.0632 µM) [%]	viability (KB3-1 [2]; 0.19 µM) [%]	viability (KB3-1 [2]; 0.569 µM) [%]	viability (KB3-1 [2]; 1.71 µM) [%]	viability (KB3-1 [2]; 5.12 µM) [%]	viability (KB3-1 [2]; 15.4 µM) [%]	viability (KB3-1 [2]; 46.1 µM) [%]	log AC50 of viability decrease (Nalm-6 [3]; run: 1)	log AC50 of viability decrease (Nalm-6 [3]; run: 2)	log AC50 of viability decrease (KB3-1 [4])
CCC(=O)N1CCN(CC1)C2=C(C=C(C=C2)N3C(=O)\C=C/C4=C3C5=CC(=CC=C5N=C4)C6=CN=C7C=CC=CC7=C6)C(F)(F)F [Torin-1]	100	100	89.4	79.5	73.5	62.7	67.8	60.2	54.9	42.9	5.19	107	113	101	97.6	76.5	70.7	72.2	60.8	39.4	27.1	3.49	96.1	104	86.4	74.9	55.4	47.2	43.8	45.3	47.6	45.8	42.4	-5.23	-5.38	-7.68
NC1=NC=C(C=C1)C2=CC=C3N=CC\4=C(N(C(=O)\C=C4)C5=CC(=CC=C5)C(F)(F)F)C3=C2 [Torin-2]	68.9	59.9	55.7	45.9	27.3	17.9	12.9	10.9	9.27	8.18	3.99	83.3	73.2	62	46.9	29.3	15.8	9.9	6.18	6.13	4.94	2.36	69.8	64.7	50	45	45.8	37.4	28	24.1	23.7	22.6	6.79	-7.53	-7.73	-7.28
CC(C)C[C@@H](C(=O)N[C@H](C(=O)OC1CCCC1)c1ccccc1)[C@H](O)C(=O)NO [Tosedostat]	91.6	88.2	90.5	95.1	94.9	99.9	101	99.6	95.3	79.7	4	78.7	93.7	91.6	97.7	98.3	98.5	102	93.9	92.8	81.6	3.63	95.4	92.2	101	102	93.6	87.5	86.8	69	71	56.1	4.82	-4.63	-4.63	-4.78
Cc1cc(Nc2cc(N3CCN(C)CC3)nc(Sc3ccc(NC(=O)C4CC4)cc3)n2)[nH]n1 [Tozasertib]	84.7	87.8	64.8	64.1	53.6	57.8	50.4	48.8	50.6	38	4.83	95.5	93.5	78.1	74.1	59.8	65.2	60.6	55.9	54.8	33	5.71	97.3	100	94.3	91.8	94.3	93.3	90.2	90	81	68.2	48.4	-5.13	-5.13	-4.73
CC(C)[C@]12O[C@H]1[C@@H]1O[C@]13[C@]1(O[C@H]1C[C@H]1C4=C(CC[C@@]13C)C(=O)OC4)[C@@H]2O [Triptolide]	87.9	82	31	6.57	18.3	24.3	21.3	19.3	20.2	16.9	14.8	102	92.5	36.8	6.17	18.3	35.8	32.3	31.6	25.1	32.2	24.6	108	99.6	67.4	15.5	15.9	19.2	18.5	20.5	21.3	19.8	22.4	-8.33	-8.38	-8.13
COC(=O)c1ccc2c(c1)NC(=O)/C2=C(\Nc1ccc(N(C)C(=O)CN2CCN(C)CC2)cc1)c1ccccc1 [Vargatef]	101	96.5	112	116	110	80.6	31.4	7.95	4.85	3.8	1.18	99.5	104	100	103	96.1	58.2	17	5.2	4.29	3.82	1.1	101	103	106	99	87.9	86.7	64	39.7	33.3	34.6	1.59	-6.48	-6.68	-5.93
